# Reference: PubChem BioAssay AID2101 (National Center for Advancing Translational Sciences (NCATS), 2009)
# Among all 330,000 compounds or so, about 300 (0.091%) were called active. The inconclusive results got no clear call from the source; some entries with a clear call stand among them for comparison. Calls follow the shape of the dose curve; as a rule, active = well fitted inhibition curve with a large enough effect; inconclusive = small, poorly fitted or top-dose-only effect, or effect the other way, or another doubt; inactive = no such curve, though single readings can be large or run the other way. Potencies of inconclusive entries are left out as doubtful fits.
# Biological target: Lysosomal acid glucosylceramidase (Homo sapiens) (UniProt P04062)
# Assay: qHTS Assay for Inhibitors and Activators of N370S glucocerebrosidase as a Potential Chaperone Treatment of Gaucher Disease;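 as to activity change, negative = inhibition: 0% = full enzyme activity and -100% = no enzyme basal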
# Conditions: N370S GC spleen homogenate, 4MU-glucoside fluorescence; activity change, negative = inhibition: at 59.4 µM (top of the series) unless noted
# Potency is read from the fitted curve at half-maximal effect.
Structure (SMILES),Potency,"activity change, negative = inhibition"
Fc1ccc(N=Cc2ccc[nH]2)cc1,inactive,–
COC(=O)c1ccccc1NC(=O)CN1CCN(Cc2ccccc2)CC1,"inconclusive [inhibitor, single point]",–
Cc1nn(-c2ccc(F)cc2F)c2c1-c1nc(N3CCCC3)ncc1CC2,"inconclusive [activator, partial curve]",–
COc1ccc(S(=O)(=O)N2CCCCC2)cc1NC(=O)C1CC(=O)N(c2ccc3c(c2)OCCO3)C1 (stereo unspecified),"inconclusive [inhibitor, partial curve, poor fit]",–
CCC1CCCCN1CCCNC(=O)c1ccc2c(=O)n(CCOC)c(=O)[nH]c2c1 (stereo unspecified),"inconclusive [activator, partial curve]",–
CN(C(=O)NC(=O)C1=C(N2CCOCC2)/C(=C/c2ccccc2)CC1)S(C)(=O)=O,"inconclusive [activator, partial curve]",–
O=C(NCc1ccccn1)Nc1cccc(Cl)c1Cl,inactive,–
COc1ccccc1Nc1nc(-c2ccccc2O)nc2ccccc12,"inconclusive [activator, partial curve]",–
COc1ccc(Cl)cc1NC(=O)CN(C)C(=O)c1cc2c(s1)CCCC2,"inconclusive [activator, partial curve]",–
C=CCn1c(N2C(=O)CC(Cc3ccccc3)C2=O)nc2ccccc21 (stereo unspecified),"inconclusive [activator, partial curve]",–
CCCCC(C(=O)NC(C)(C)C)N(Cc1ccccc1Cl)C(=O)c1snc(C(N)=O)c1N (stereo unspecified),"inconclusive [activator, single point]",–
Cc1ccc(N2CC(C)Cn3c2nc2c3c(=O)n(CC(=O)OCc3ccccc3)c(=O)n2C)cc1C (stereo unspecified),"inconclusive [activator, partial curve, poor fit]",–
Oc1ccc(Oc2ccc3c(C(F)(F)F)cc(C(F)(F)F)nc3n2)cc1,inactive,–
COc1cc2cc3c4cc(OC)c(OC)cc4cc[n+]3c(C)c2cc1OC,"inconclusive [inhibitor, single point]",–
CN1CCN(c2cc3c(c4c2[nH]c2ccccc24)C(=O)CC(C)(C)C3)CC1,"inconclusive [inhibitor, single point]",–
O=C(COC(=O)Cn1cnc2ccccc2c1=O)Nc1ccc(Cl)cc1,inactive,–
COc1ccc(C)cc1-n1c(SCC(=O)Nc2cc(C)on2)nc2sc(C)c(C)c2c1=O,"inconclusive [activator, partial curve]",–
O=C(COC(=O)c1ccccc1NCCO)NCCC1=CCCCC1,"inconclusive [activator, partial curve]",–
O=C(CCN1C(=O)/C(=C\C=C\c2ccccc2)SC1=S)Nc1cccc(C(=O)O)c1,"inconclusive [inhibitor, partial curve, poor fit]",–
COc1ccc(/C=C/c2nc(C#N)c(NCCN(C)C)o2)cc1OC,"inconclusive [activator, single point]",–
C=CCN=C1NN=C(c2cc(C)n(CCOC)c2C)CS1,inactive,–
COCc1cc(C)nc(SCC[N+](C)(C)CC(=O)Nc2cccc(C(F)(F)F)c2)c1C#N,"inconclusive [inhibitor, partial curve]",–

Structure (SMILES),Potency,"activity change, negative = inhibition"
O=C(CSc1nc(=O)n2ccccc2n1)N1N=C(c2cccs2)CC1c1ccc(F)cc1 (stereo unspecified),"inconclusive [inhibitor, full curve, poor fit]",–
CC(COc1ccc(/C=C/c2ccccc2)cc1)[N+](C)(C)C (stereo unspecified),"inconclusive [inhibitor, single point]",–
NC(=O)CN(c1ccc(Cl)cc1)S(=O)(=O)c1ccccc1,"inconclusive [inhibitor, partial curve]",–
Cc1ccc(S(=O)(=O)[N-]c2nc3ccccc3nc2-n2cc[n+](Cc3ccccc3)c2)cc1,"inconclusive [activator, partial curve]",–
COc1ccccc1[C@H]1C(c2cccc(C)c2)=NN(c2ccccc2)[C@@H]1CO,"inconclusive [activator, partial curve]",–
CC1(C)CC(=O)C2=C(C1)Oc1ncn(Cc3ccco3)c(=N)c1C2c1ccccc1 (stereo unspecified),"inconclusive [activator, single point]",–
Cc1nc2ccccc2c(=O)n1/N=C/c1ccccc1Cl,inactive,–
CCOC(=O)N1CCN(c2nc3ccccc3nc2C(C#N)C(=O)NCCc2ccccc2)CC1 (stereo unspecified),inactive,–
N#CC1=C(Nc2ccccc2)SC=C(c2ccc(Br)cc2)N=C1N1CCOCC1,"inconclusive [activator, partial curve, poor fit]",–
O=C(CSC1=Nc2ccccc2C2CC=NN12)Nc1ccc2c(c1)OCO2 (stereo unspecified),"inconclusive [activator, single point]",–
O=C1C=C(N2CCCCC2)C2(CCCCC2)O1,"inconclusive [activator, partial curve]",–
CCc1ccc(-c2cc(C(=O)O)c3ccccc3n2)s1,"inconclusive [activator, partial curve]",–
Cc1cccc(OCC(=O)NCC(=O)N=Nc2c(O)[nH]c3ccc([N+](=O)[O-])cc23)c1,"inconclusive [inhibitor, single point]",–
Cc1ccc(Sc2c([N+](=O)[O-])ncn2C)cc1,inactive,–
O=C(/C=C/c1ccccc1Cl)NNC(=O)c1cccs1,"inconclusive [inhibitor, single point]",–
COc1ccc(N2CCN(CCCNC(=O)CN3CCN(Cc4ccccc4C)C3=O)CC2)cc1,inactive,–
Cc1nn(-c2ccccc2)c2c1cc1c(=O)n(C)c(=O)nc-1n2-c1ccccc1F,"inconclusive [activator, partial curve]",–
Cc1noc(C)c1C(=O)OCC(=O)Nc1ccccc1C(=O)NC(C)c1ccccc1 (stereo unspecified),"inconclusive [activator, single point]",–
CCCC1OC23CCCCC2C(C#N)(C#N)C1(C#N)C(=N)O3 (stereo unspecified),"inconclusive [activator, partial curve]",–
O=[N+]([O-])c1ccc(N2CCCCC2)nc1N1CCCCC1,"inconclusive [activator, partial curve]",–
O=C1Nc2ccccc2C(=O)N2CCCCC12 (stereo unspecified),inactive,–
CCNc1ncc2nc(-c3ccccc3)c(=O)n(CCOC)c2n1,"inconclusive [activator, partial curve]",–

Structure (SMILES),Potency,"activity change, negative = inhibition"
COc1ccc(/C=C2\N=C(c3ccccc3Cl)NC2=O)cc1,"inconclusive [activator, partial curve]",–
COc1ccccc1NC(=O)CN1CCN(C2c3ccccc3-c3ccccc32)CC1,"inconclusive [activator, partial curve]",–
O=C(N[C@@H](Cc1ccccc1)C(=O)CCl)OCc1ccccc1,"inconclusive [inhibitor, full curve, poor fit]",–
COC(=O)C1=CN(CC2CCCO2)C=C(C(=O)OC)C1c1cc(OC)c(OC)c(OC)c1 (stereo unspecified),"inconclusive [activator, single point]",–
COCCCNC(=O)/C(C#N)=C/c1c(N2CCN(c3ccccc3)CC2)nc2ccccn2c1=O,"inconclusive [activator, partial curve]",–
O=C(COC(=O)Cc1ccc(F)cc1)Nc1ccc2[nH]c(=O)[nH]c2c1,inactive,–
COC(=O)c1ccc(C(/C=C/[C@@H](C)C(=O)N(C)C)NC(=O)OCc2ccccc2)cc1 (stereo partly specified),inactive,–
N#CC1=C(N)Oc2cc3ccccc3cc2C1c1cccnc1 (stereo unspecified),inactive,–
O=C(Nc1cc2c(oc1=O)CCCC2=O)c1cccc(Cl)c1,inactive,–
COc1ccc(S(=O)(=O)CCC(=O)Nc2ccc(OC)cc2OC)cc1,–,inconclusive: 29.2% [activator]
O=C1c2cccnc2C(Nc2ccc(S(=O)(=O)N3CCCCC3)cc2)N1Cc1ccccc1 (stereo unspecified),"inconclusive [inhibitor, partial curve, poor fit]",–
CC(/C=C/c1ccc(N(C)C)cc1)=N\N=C1\NC(=O)CC(C(=O)Nc2ccccc2)S1 (stereo unspecified),"inconclusive [inhibitor, single point]",–
COc1cccc2c(=O)c3c(cnn3C)n(C)c12,"inconclusive [activator, partial curve]",–
O=C(NCc1ccc2c(c1)OCO2)NC12CC3CC(CC(C3)C1)C2,"inconclusive [activator, single point]",–
CCOC(=O)CCc1c(C)c(C#N)c2[nH]c3ccccc3n2c1=O,"inconclusive [activator, single point]",–
CSc1nnc2c3c4c(sc3c(=O)n(-c3ccccc3)n12)CC(C)(C)OC4,–,inconclusive: 26.3% [activator]
CN(C)/C=C\C(=C/C(=O)C(F)(F)F)Nc1ccccc1Oc1ccccc1,"inconclusive [activator, partial curve, poor fit]",–
COCC(C)OC(=O)c1c(N)n(CCCN2CCOCC2)c2nc3ccccc3nc12 (stereo unspecified),"inconclusive [activator, partial curve]",–
CCC(C)n1nnc2c(=O)oc3ccccc3c21 (stereo unspecified),inactive,–
CCOc1ccccc1-c1nnc2n1N=C(c1cc(OC)cc(OC)c1)CS2,inactive,–
CC1=NC(C(F)(F)F)(C(F)(F)F)C2=C(CC(C)(C)CC2=O)N1Cc1ccco1,"inconclusive [activator, partial curve]",–
COCCCn1c(=N)c(C(=O)NCC2CCCO2)cc2c(=O)n3cccc(C)c3nc21 (stereo unspecified),"inconclusive [activator, single point]",–
